The record followed here is patent publication US9745340B2, “Method for the separation of proteins containing an albumin-binding” (AFFIBODY AB, priority 2012, dated 2017).

In one series the test system is PEP08517. In words: Column study I: spin columns, Z variant-coupled SulfoLink resins, pure sample. Format: binding. The protocol: 1 mg of each lyophilized ABD binding Z variant Z06608, Z06620, Z06638, Z06650, Z06677, Z06678 and Z06695, in the format His6-(Z#####)2-Cys produced as described in Example 2, was resuspended in a reducing buffer (50 mM Tris-HCl, 5 mM EDTA, 20 mM DTT, pH 8.5) and incubated at RT for 2 h. Reduced protein solutions were transferred to a coupling buffer (50 mM Tris-HCl, 5 mM EDTA, pH 8.5) including 50 mM DTT, using size exclusion chromatography, and then mixed with portions of 0.2 ml SulfoLink Coupling Resin (Thermo Fisher Scientific, cat. no. 20401). This procedure enables site-directed reaction between the thiol groups of the C-terminal cysteine residues of the ABD binding Z variants and the iodoacetyl groups of the resin, forming a covalent thioether bond. The coupling reaction was carried out according to the instructions by the manufacturer. The degree of coupling, defined as mg of coupled ABD binding Z variant per ml of resin, was determined as follows: The amount of coupled ABD binding Z variant was calculated by subtracting the amount of uncoupled material from the original amount of sample, based on concentrations obtained by spectrophotometric measurements of the absorbance at 280 nm. The amount of coupled ABD binding Z variant in mg was then divided with the volume of the SulfoLink Coupling Resin.
A first column study was performed to test binding, wash and elution properties of each of the seven ABD binding Z variants coupled to resin and by using a previously purified sample of the ABD fusion protein PEP08517. PEP08517 comprises the albumin binding domain PP013 (SEQ ID NO:160) fused at its N-terminus to a cytokine binding variant of protein Z. 0.1 ml portions of the resins were transferred to test tubes and 0.1 ml of a pure sample of PEP08517 at 2 mg/ml in coupling buffer was added. The tubes were incubated on a rotating wheel for 1 h at RT. Each sample-resin mix was transferred to an empty spin column. Unbound protein was collected by centrifugation (flow-through, FT). 0.1 ml of different solutions, specified in Table 1, were thereafter added to wash and subsequently elute bound PEP08517 molecules. Each wash and elution fraction was collected by centrifugation.
Collected fractions were analyzed in a spectrophotometer by measuring the absorbance at 280 nm.

For a further series, the system named is PEP08515. Put plainly: Column study II: spin columns, Z variant-coupled resins, bacterial extract. It counts as binding. Conditions: 0.1 M sodium citrate pH 3.0 then 0.5 M HAc pH 2.5. The protocol:
A second column study was performed to further test binding, wash and elution properties of four ABD binding Z variant-coupled resins from column study I. The ligands of these resins were His6-(Z06608)2-Cys, His6-(Z06638)2-Cys, His6-(Z06677)2-Cys and His6-(Z06650)2-Cys. An additional column packed with HSA Sepharose (human serum albumin coupled, according to the instructions by the manufacturer, via free amines to CNBr-activated Sepharose 4 Fast Flow, GE Healthcare, cat. no. 17-0981) was included as a reference. A clarified bacterial extract, prepared from an E. coli pellet by sonication and centrifugation, was used as sample in this experiment. 0.17 ml of the bacterial extract, containing approximately 0.5 mg of PEP08515 (comprising the albumin binding domain PP013 (SEQ ID NO:160) fused at its N-terminus to a PDGFR-β (Platelet Derived Growth Factor Receptor beta) binding variant of protein Z) was transferred to spin columns packed with each respective ABD binding Z variant-coupled resin or HSA Sepharose. Flow-through was collected by centrifugation and reapplied twice to the columns. Different solutions, specified in Table 2, were added to remove bacterial host proteins and to subsequently elute bound PEP08515 molecules. Wash and elution fractions were collected by centrifugation and analyzed in a spectrophotometer by measuring the absorbance at 280 nm, and by SDS-PAGE.

Series [1] can be described thus: Melting point (Tm) by circular dichroism, variable temperature measurement. It counts as physicochemical. Conditions: 0.5 mg/ml in PBS, CD 220 nm, 20-90 °C. As for the experimental part: Circular dichroism (CD) analysis was carried out to determine the melting point (Tm) of His6-(Z06677)2-Cys. The purified sample was diluted to 0.5 mg/ml in PBS. A variable temperature measurement (VTM) was performed, in which the absorbance at 220 nm was monitored during heating of the sample from 20° C. to 90° C., with a temperature slope of 5° C./min. Tm was determined from the midpoint of the transition in the CD signal vs. temperature plot. The CD measurement was performed on a Jasco J-810 spectropolarimeter (Jasco Scandinavia AB) using a cell with an optical path length of 1 mm.

A further series concerns PEP08519. Put plainly: Chromatography study of elution pH, linear pH gradient. It counts as binding. As to conditions: linear gradient pH 5.5 to pH 2.3, 0.1 M sodium citrate, 0.9% NaCl. The protocol: His6-(Z06677)2-Cys was immobilized on activated EAH-Sepharose 4B (GE Healthcare, cat. no. 17-0569-01). Activation and immobilization was carried out according to the manufacturer's instructions, and the degree of coupling was determined as described in Example 3. Activated EAH Sepharose contains an iodoacetyl group that enables site-directed coupling via the C-terminal cysteine of the affinity ligand. 0.43 ml of the resin was packed in a Tricorn 5/50 column (GE Healthcare). As a reference, 0.47 ml HSA Sepharose (see Example 3) was packed in the same kind of column.
The elution experiment was performed using an ÄKTAexplorer 10 chromatography system (GE Healthcare). The two columns were attached to the system and equilibrated with PBS. 2 ml of a sample containing 1 mg PEP08519 (comprising the albumin binding domain PP013 (SEQ ID NO:160) fused at its N-terminus to a Taq polymerase binding variant of protein Z) was loaded on each column followed by wash with PBS and 0.1 M sodium citrate, 0.9% NaCl, pH 5.5. Bound protein was eluted by a linear pH gradient ranging from pH 5.5 to pH 2.3 (using 0.1 M sodium citrate, 0.9% NaCl, pH 5.5, and 0.1 M sodium citrate, 0.9% NaCl, pH 2.3) over 16 column volumes (CV). The pH was monitored by the built-in pH meter of the ÄKTAexplorer system.

B1: His6-(Z06677)2-Cys: dimeric Z06677 with N-terminal His6 tag and C-terminal Cys, MGSSHHHHHHLQ-[Z06677][Z06677]-VDC (protein)
chain: MGSSHHHHHHLQVDAKYAKELKVAFKEINTLPNLTHQQRIAFIIKLDDDPSQSSELLAEAKKLNDAQAPKVDAKYAKELKVAFKEINTLPNLTHQQRIAFIIKLDDDPSQSSELLAEAKKLNDAQAPKVDC
Consider B1, for which, in the series on PEP08517 (0.5 M HAc, pH 2.5, first (a) or second (b) addition), the “elution step releasing most of the sample” value is given as “eluted the majority of the sample at the first pH 2.5 buffer addition”. For the same molecule, the “elution profile in column study I” value in the series with PEP08517 (SulfoLink resin, wash PBS/Tris, elution pH 4 and pH 2.5, A280) is reported as “most favorable elution profile”. The “elution of bound protein in column study II” value in the series on PEP08515 is recorded as “released a majority of its bound protein at the higher pH range of elution”. Moreover, the “melting point (Tm)” value in series [1] was determined as 54 °C. The “pH at peak maximum for the eluted peak” value with PEP08519 was 3.3.
